Measurements as given in the supplement of paper PMC4466236.
In all, about 33,000 sequences were measured (“E-score (dimensionless, -0.5 to 0.5)”: median about -0.058, highest 2% from about 0.35 on). The list shows a part of the results.

Each sequence was assayed on MvaT (assay: PBM 8-mer E-score (mean of HK and ME arrays) (E-score (dimensionless, -0.5 to 0.5)); higher = stronger relative binding preference; most listed sequences are background and not binding sites).
In short: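 Full-length P. aeruginosa MvaT, with glutathione S-transferase fused to its N-terminus (cloned into pTH6838 by isothermal assembly), was tested by protein binding microarray using a previously described protocol. Two universal double-stranded 60-mer arrays (ME and HK) were used, each with a constant 25-mer primer region and a variable 35-mer region covering all 8-mers. The rank-based 8-mer E-score (-0.5 to 0.5) is the mean of the two arrays, parsed with a custom Python script.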

| Sequence | PBM 8-mer E-score |
| --- | --- |
| CAATGAAA | 0.00551 |
| AACTCAGC | 0.0876 |
| CGTAGGGA | -0.205 |
| ACGGACAG | -0.161 |
| ACCATTCC | -0.0127 |
| AACGTACC | -0.048 |
| AGCAAGGG | -0.169 |
| GAGCCGGA | -0.254 |
| AAAGAACG | 0.0931 |
| CTTTGTAA | 0.119 |
| CATAGCAG | -0.049 |
| GGTCGACA | -0.0437 |
| AGATATAG | 0.208 |
| AGGTCTAG | -0.194 |
| ACGCGAGT | -0.0951 |
| TGTCTGAA | -0.0723 |
| GATACCAC | -0.0597 |
| ACGAGCTC | -0.191 |
| CACAAGAA | -0.049 |
| ATAGTGTA | 0.269 |
| GGGATACC | -0.17 |
| AAGCAAAC | 0.051 |

| Sequence | PBM 8-mer E-score |
| --- | --- |
| AAGCTTCT | -0.0432 |
| AGTTTTCA | 0.058 |
| AGGATGGG | -0.229 |
| ATGCTTTG | -0.0104 |
| AGGACCCT | -0.235 |
| CGTAAAAA | 0.133 |
| AGACACAA | -0.0303 |
| GTGAATAA | 0.243 |
| CCTCTACC | -0.233 |
| ACCTTTCT | -0.0403 |
| ATAAATGC | 0.279 |
| CTTGTGCC | -0.0486 |
| ATAATTAT | 0.467 |
| ATTGTATC | 0.144 |
| ATCAACCG | -0.104 |
| CCCCAGGC | -0.307 |
| ACAGAGGG | -0.132 |
| ATTGGGAC | 0.00917 |
| ACACTGCC | -0.148 |
| CTCACGGA | -0.101 |
| CTCTCGTC | -0.167 |
| CGCACATC | -0.00869 |

| Sequence | PBM 8-mer E-score |
| --- | --- |
| GAAGTGCC | -0.181 |
| AATGGCCG | -0.0953 |
| ATATCGTG | 0.234 |
| AAGGAACA | -0.115 |
| GTCATCCA | -0.138 |
| ATTCGGCC | -0.146 |
| GGGATTAC | -0.101 |
| CTCAGAGA | -0.0944 |
| TGGTTAAA | 0.187 |
| ACTTTCCA | 0.209 |
| CATTTAGA | 0.152 |
| TATGCATA | 0.171 |
| ACGTGTCC | -0.0234 |
| GCTCAACC | -0.107 |
| GAAATTGA | 0.233 |
| AGTAAGAA | 0.233 |
| AAGAGAAA | 0.0589 |
| CTAGCTGA | -0.108 |
| AGTTATCC | 0.145 |
| TGCGGGAA | -0.0799 |
| AAGACCTG | -0.182 |
| AAAGCGAG | 0.0339 |

| Sequence | PBM 8-mer E-score |
| --- | --- |
| GCATTCTA | -0.0392 |
| CGAAAGGA | -0.263 |
| AAAGCACG | -0.107 |
| CACCCCCA | -0.231 |
| AACCGCTG | -0.217 |
| AATACCAG | 0.0624 |
| CCAAACAC | 0.111 |
| GCGTGGGA | -0.265 |
| GGGCCGGA | -0.315 |
| ATACCAGA | -0.0239 |
| ACCAGACG | -0.141 |
| GGTGCAAA | 0.0377 |
| ACCCTCCT | -0.239 |
| GATTGAGC | -0.101 |
| CAGTAGCA | 0.0532 |
| AATCAGGC | 0.0626 |
| GTTAAAGA | 0.11 |
| AGTATGGA | 0.215 |
| CACGATGA | -0.159 |
| AGCCCGTG | -0.121 |
| ACGTACGA | -0.134 |
| ATGGCGAG | 0.026 |

| Sequence | PBM 8-mer E-score |
| --- | --- |
| CAGCCGTA | -0.0892 |
| ATCTAAGC | 0.00999 |
| ATGTTGCG | 0.105 |
| CATACTAG | 0.203 |
| AGATCAAC | 0.053 |
| AGGTACCA | -0.0452 |
| GCCGAGTA | -0.0638 |
| ATCCAACA | 0.0114 |
| CCTGTATC | 0.0618 |
| AAGGGAAA | 0.0342 |
| CCGAAGCG | -0.161 |
| AACGGGGG | -0.194 |
| ATGGTGTG | 0.0281 |
| ACTTCCAC | 0.089 |
| GCTTTCAC | -0.189 |
| ACGAGGCC | -0.0845 |
| AACACAAC | 0.195 |
| AAAGCAAT | 0.163 |
| TGTCCTAA | 0.0665 |
| AAATACCA | 0.196 |
| GAAGCTAC | -0.117 |
| GGGGCGAA | -0.179 |
